Measurements as given in the antibiotic and cytotoxicity screens of Wong et al. (2023).
This is one part of the list.

Experiments:
HSkMC = human skeletal muscle cells; assay: cytotoxicity call (relative viability < 0.9); conditions: 10 µM
HepG2 = assay: cytotoxicity call (relative viability < 0.9); conditions: 10 µM
S. aureus RN4220 = assay: growth inhibition call (relative growth <= 0.2); conditions: 50 µM

Row | SMILES | cytotoxicity call (HSkMC) | cytotoxicity call (HepG2) | growth inhibition call (S. aureus RN4220)
1 | O=C(/C=C/c1ccccc1)c1ccc(O[C@@H]2O[C@H](CO)[C@@H](O)[C@H](O)[C@H]2O)cc1O | inactive | inactive | inactive
2 | C[C@@H]1CN([C@H](C)CO)C(=O)c2cc(NC(=O)NC3CCCCC3)ccc2O[C@@H]1CN(C)S(=O)(=O)c1cn(C)cn1 | inactive | inactive | inactive
3 | CCNC(=O)C[C@@H]1C=C[C@@H](NC(=O)C2CC2)[C@@H](CO)O1 | inactive | inactive | inactive
4 | C[C@@H]1CN([C@@H](C)CO)C(=O)Cc2cc(NC(=O)c3ccncc3)ccc2O[C@@H]1CN(C)S(=O)(=O)c1ccc(Cl)cc1 | inactive | inactive | inactive
5 | C[C@H]1CN([C@@H](C)CO)C(=O)c2cc(NC(=O)Cc3ccccc3)ccc2O[C@@H]1CN(C)S(=O)(=O)c1cn(C)cn1 | inactive | inactive | inactive
6 | C/C=C\C=C/[C@@H]1O[C@](O)([C@@H](CC)C(=O)NC/C=C\C=C(\C)[C@@H](OC)[C@@H](C)[C@H]2O[C@@H](\C=C/C=C\C=C(\C)C(=O)c3c(O)cc[nH]c3=O)[C@@H](O)[C@@H]2O)[C@@H](O)[C@H](O)C1(C)C | inactive | inactive | inactive
7 | C[C@H]1CN([C@@H](C)CO)S(=O)(=O)c2ccc(-c3ccc(C#N)cc3)cc2O[C@@H]1CN(C)C(=O)CN(C)C | inactive | inactive | inactive
8 | C[C@@H]1CCCCO[C@@H](CN(C)S(=O)(=O)c2ccc(Cl)cc2)[C@H](C)CN([C@H](C)CO)C(=O)c2cc(NC(=O)Cc3ccccc3)ccc2O1 | inactive | active | inactive
9 | Cn1cnc(S(=O)(=O)N[C@H]2CC[C@H](CC(=O)N3CCN(c4ccccc4)CC3)O[C@H]2CO)c1 | inactive | inactive | inactive
10 | Cc1cn(CCC(=O)O)c(=O)[nH]c1=O | inactive | inactive | inactive
11 | C[C@@H]1CN([C@H](C)CO)C(=O)c2cc(NC(=O)Nc3ccccc3)ccc2O[C@H]1CN(C)S(C)(=O)=O | inactive | inactive | inactive
12 | C[C@@H]1CN([C@@H](C)CO)C(=O)Cc2cc(NC(=O)Nc3ccc(C(F)(F)F)cc3)ccc2O[C@@H]1CN(C)Cc1ccc(C(=O)Nc2ccccc2N)cc1 | inactive | active | inactive
13 | COC1=CC(=O)C(O)=CC1=CC=Cc1ccccc1 | active | active | inactive
14 | C[C@H]1CCCCO[C@@H](CN(C)C(=O)c2ccccc2)[C@@H](C)CN([C@@H](C)CO)C(=O)c2cc(NC(=O)Nc3ccc(F)cc3)ccc2O1 | inactive | inactive | inactive
15 | C[C@@H]1CN([C@H](C)CO)C(=O)c2cc(NC(=O)CCC(F)(F)F)ccc2O[C@@H](C)CCCCO[C@@H]1CN(C)C(=O)Cc1ccccc1 | inactive | inactive | inactive
16 | C[C@H](CO)N1C[C@H](C)[C@@H](CN(C)Cc2ccc(Cl)c(Cl)c2)Oc2ccc(NC(=O)CCCCCC(=O)Nc3ccccc3N)cc2C1=O | inactive | inactive | inactive
17 | C[C@@H]1CN([C@@H](C)CO)C(=O)c2cc(NC(=O)Cn3cnnn3)ccc2O[C@H]1CN(C)S(=O)(=O)c1ccccc1 | inactive | inactive | inactive
18 | C[C@@H]1CN([C@@H](C)CO)C(=O)c2cc(NC(=O)Nc3ccccc3)ccc2O[C@H]1CN(C)S(C)(=O)=O | inactive | inactive | inactive
19 | C[C@H]1CN([C@@H](C)CO)C(=O)Cc2cc(NS(=O)(=O)c3cn(C)cn3)ccc2O[C@@H]1CN(C)C(=O)Nc1ccc2c(c1)OCO2 | inactive | inactive | inactive
20 | O=C(C[C@H]1C[C@H]2c3cc(NC(=O)Nc4ccccc4)ccc3O[C@H]2[C@@H](CO)O1)NCCN1CCCCC1 | inactive | inactive | inactive
21 | CC(=O)N(C)C1(c2ccccc2)CCN(CCC[C@]2(c3ccc(Cl)c(Cl)c3)CCCN(C(=O)c3ccccc3)C2)CC1 | active | active | inactive
22 | C[C@@H]1CN([C@H](C)CO)C(=O)c2cccc(NC(=O)C3CC3)c2O[C@@H]1CN(C)S(=O)(=O)c1ccccc1 | inactive | inactive | inactive
23 | Cc1cccc(N[C@H]2CS(=O)(=O)C[C@@H]2O)c1 | inactive | inactive | inactive
24 | CN(C(=O)C(Cl)Cl)c1ccc(OC(=O)c2ccco2)cc1 | inactive | inactive | inactive
25 | O=C1OCCC=C[C@H]2O[C@@]34C=CCN(Cn5nnc6ccccc65)C(=O)[C@H]3N(CCCCCO)C(=O)[C@@H]4[C@@H]12 | inactive | inactive | inactive
26 | CC(C)NC(=O)Nc1ccc2c(c1)CC(=O)N([C@H](C)CO)C[C@@H](C)[C@@H](CN(C)C(=O)NC1CCCCC1)O2 | inactive | inactive | inactive
27 | COc1ccc(S(=O)(=O)Nc2ccc3c(c2)C(=O)N([C@H](C)CO)C[C@@H](C)[C@H](CN(C)S(=O)(=O)c2ccc(Cl)cc2)OCCCC[C@H](C)O3)cc1 | inactive | inactive | inactive

Row | SMILES | cytotoxicity call (HSkMC) | cytotoxicity call (HepG2) | growth inhibition call (S. aureus RN4220)
28 | Cc1noc(C)c1S(=O)(=O)Nc1ccc2c(c1)C(=O)N([C@@H](C)CO)C[C@H](C)[C@H](CN(C)C(=O)Nc1cccc3ccccc13)OCCCC[C@H](C)O2 | inactive | inactive | inactive
29 | C[C@@H]1CCCCO[C@H](CN(C)C(=O)NC2CCCCC2)[C@@H](C)CN([C@H](C)CO)C(=O)c2cc(NS(=O)(=O)c3ccccc3)ccc2O1 | inactive | inactive | inactive
30 | C[C@H]1CN([C@@H](C)CO)C(=O)c2cc(NC(=O)CCN3CCOCC3)ccc2O[C@H]1CN(C)S(=O)(=O)c1cn(C)cn1 | inactive | inactive | inactive
31 | Cc1ccc(S(=O)(=O)N(C)C[C@@H]2OCCCC[C@H](C)Oc3ccc(NC(=O)Nc4c(C)noc4C)cc3C(=O)N([C@H](C)CO)C[C@H]2C)cc1 | inactive | inactive | inactive
32 | CC(C)C#Cc1cnc2c(c1)C(=O)N([C@@H](C)CO)C[C@H](C)[C@H](CN(C)S(=O)(=O)c1cn(C)cn1)O2 | inactive | inactive | inactive
33 | C[C@H]1CN([C@@H](C)CO)C(=O)c2cc(NS(=O)(=O)c3cn(C)cn3)ccc2O[C@H]1CN(C)S(=O)(=O)c1cccs1 | inactive | inactive | inactive
34 | C[C@H]1CN([C@@H](C)CO)C(=O)Cc2cc(NC(=O)Nc3ccc(C(F)(F)F)cc3)ccc2O[C@@H]1CN(C)Cc1ccncc1 | inactive | active | inactive
35 | C[C@@H]1CN([C@@H](C)CO)C(=O)c2cc(C#CCN(C)C)cnc2O[C@@H]1CN(C)Cc1ccc(C(=O)O)cc1 | inactive | inactive | inactive
36 | C[C@H](CO)N1C[C@H](C)[C@@H](CN(C)Cc2ccc(C(=O)Nc3ccccc3N)cc2)Oc2ccc(NC(=O)Cc3cn(C)c4ccccc34)cc2CC1=O | inactive | inactive | inactive
37 | C[C@H](CO)N1C[C@H](C)[C@@H](CN(C)Cc2ccc(-c3ccccc3)cc2)Oc2ccc(NC(=O)C3CCCCC3)cc2C1=O | inactive | inactive | inactive
38 | O=C(O)C[C@H]1CSc2nccc(=O)n21 | inactive | inactive | inactive
39 | C[C@@H]1CN([C@H](C)CO)C(=O)c2cccc(NC(=O)c3ccc(-c4nccs4)cc3)c2O[C@@H]1CN(C)S(=O)(=O)c1ccc(Cl)cc1 | inactive | inactive | inactive
40 | CNC[C@@H]1Oc2cc(C#CC(C)(C)O)ccc2S(=O)(=O)N([C@@H](C)CO)C[C@@H]1C | inactive | inactive | inactive
41 | Cc1noc(C)c1NC(=O)N(C)C[C@H]1OCCCC[C@@H](C)Oc2ccc(NC(=O)NC3CCCCC3)cc2C(=O)N([C@H](C)CO)C[C@@H]1C | inactive | active | inactive
42 | C[C@@H]1CN([C@@H](C)CO)C(=O)c2cccc(NS(C)(=O)=O)c2O[C@@H]1CN(C)S(=O)(=O)c1cccs1 | inactive | inactive | inactive
43 | C[C@H]1CN([C@@H](C)CO)C(=O)c2c(c3ccccc3n2C)-c2ccccc2CO[C@H]1CN(C)C(=O)Nc1ccc(-c2ccccc2)cc1 | inactive | active | inactive
44 | C[C@H](CO)N1C[C@H](C)[C@H](CN(C)Cc2ccc(Oc3ccccc3)cc2)Oc2ccc(NC(=O)c3ccncc3)cc2CC1=O | inactive | inactive | inactive
45 | C[C@@H]1CN([C@@H](C)CO)C(=O)c2cc(NC(=O)Nc3cccc4ccccc34)ccc2O[C@H]1CN(C)S(=O)(=O)c1ccc(F)cc1 | inactive | inactive | inactive
46 | C[C@@H]1CN([C@H](C)CO)C(=O)c2cc(C#CCc3ccccc3)cnc2O[C@H]1CN(C)CC1CCOCC1 | inactive | inactive | inactive
47 | O=C(O)C1CN(C(=O)c2cnccn2)C1 | inactive | inactive | inactive
48 | C[C@H]1CN([C@@H](C)CO)C(=O)Cc2cc(NC(=O)Nc3cccc4ccccc34)ccc2O[C@@H]1CN(C)C(=O)NC1CCCCC1 | inactive | inactive | inactive
49 | COC(=O)C(CC#Cc1ccc2c(c1)[C@]1(C(=O)N2)[C@H](C(=O)N2CCc3cc(OC)c(OC)cc3C2)[C@H]2C(=O)O[C@H](c3ccccc3)[C@H](c3ccccc3)N2[C@@H]1c1ccc(OCCO)cc1)C(=O)OC | inactive | inactive | inactive
50 | O=C(O)[C@@H]1CCCNC1 | inactive | inactive | inactive
51 | CNC[C@H]1Oc2cc(C#CC(C)(C)O)ccc2S(=O)(=O)N([C@@H](C)CO)C[C@@H]1C | inactive | inactive | inactive
52 | Cc1noc(C)c1S(=O)(=O)Nc1ccc2c(c1)C(=O)N([C@@H](C)CO)C[C@H](C)[C@H](CN(C)CC1CC1)O2 | inactive | inactive | inactive
53 | C[C@@H]1CN([C@@H](C)CO)C(=O)c2cc(C#Cc3ccccc3)cnc2O[C@@H]1CN(C)S(=O)(=O)c1ccccc1F | inactive | active | inactive
54 | CC(C)CC#Cc1cnc2c(c1)C(=O)N([C@@H](C)CO)C[C@@H](C)[C@H](CN(C)C(=O)CN1CCOCC1)O2 | inactive | inactive | inactive
